Several values for one entry are separate records, joined by “and”; a condition that tells them apart may be missing. Equal entries are not always repeated. The inconclusive results got no clear call from the source; some entries with a clear call stand among them for comparison. Potencies of inconclusive entries are doubtful fits and often do not repeat. Some compounds were tested as several samples or in several runs, with calls that do not always agree. Activity calls are given as the source filed them. Calls follow the shape of the dose curve; as a rule, active = well fitted inhibition curve with a large enough effect in the repeat runs; inconclusive = weak or mixed curves; inactive = no such curve, though single readings can be large or run the other way.
Target: Cytochrome P450 2C19 (Homo sapiens) (UniProt P33261)
Assay: Cytochrome P450 Family 2 Subfamily C Member 19 (CYP2C19) small molecule antagonists: luciferase reporter qHTS assay (AID 1671197); also: nearly all actives have a fitted effect of over 65% in size
Settings: P450-Glo CYP2C19 enzyme, luciferin luminescence, 1 h; series mostly up to 115 µM; activity change, negative = inhibition: at the top concentration
How it was run: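 First, compounds are pinned into enzyme-substrate mix and held 10 min at room temperature. Second, NADPH regeneration solution is added and plates incubate 1 h at 37C. Third, detection reagent is added and luminescence read after 20 min.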
% is scaled to controls: 0 for no effect and ±100 for the full control effect; potency is read from the fitted curve at half-maximal effect; tags tell the direction and shape of the fitted curve.

Sequence of UniProt P33261 (P33261 whole entry, looked up): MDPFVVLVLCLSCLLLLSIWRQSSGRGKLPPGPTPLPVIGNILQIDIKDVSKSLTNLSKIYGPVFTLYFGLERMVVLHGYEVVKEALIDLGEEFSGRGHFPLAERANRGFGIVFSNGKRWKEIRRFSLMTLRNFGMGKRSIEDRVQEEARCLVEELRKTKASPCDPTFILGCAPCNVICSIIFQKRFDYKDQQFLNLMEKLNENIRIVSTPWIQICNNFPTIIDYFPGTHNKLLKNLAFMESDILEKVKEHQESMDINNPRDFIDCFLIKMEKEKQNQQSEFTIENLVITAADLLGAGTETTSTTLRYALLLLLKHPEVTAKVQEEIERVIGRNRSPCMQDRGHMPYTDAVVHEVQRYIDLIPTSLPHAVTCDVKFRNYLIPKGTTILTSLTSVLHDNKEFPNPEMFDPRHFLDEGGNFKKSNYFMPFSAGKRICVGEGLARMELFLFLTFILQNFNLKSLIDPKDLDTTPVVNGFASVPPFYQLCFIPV

Structure (SMILES) | Potency | activity change, negative = inhibition
O=S(=O)(Cl)Cl | inconclusive: 68.4 µM [inhibitor, partial curve] | 
N#CCCC#N |  | inactive: 5.5%
CCN(CC)N=O | active: 22.6 µM and inconclusive: 89.4 µM [inhibitor, single point] | 
O=NN1CCCCCCC1 | inconclusive: 89.2 µM [inhibitor, single point] | 
CCOP(OCC)OCC | inconclusive: 81.1 µM [inhibitor, single point] | 
c1nc[nH]n1 | inconclusive: 87.6 µM [inhibitor, single point] | 
Nc1cccnc1 | inconclusive: 32.3 µM [inhibitor, full curve] | 
COc1nn(C(=O)NS(=O)(=O)c2ccccc2OC(F)(F)F)c(=O)n1C |  | inactive: 3.49%
O=[N+]([O-])c1cccc2cccnc12 | inconclusive: 81.7 µM [inhibitor, single point] | 
COc1cc(OC)nc(NC(=O)NS(=O)(=O)c2ncccc2OCC(F)(F)F)n1 | inconclusive: 84.9 µM [inhibitor, single point] | 
NCCOS(=O)(=O)O |  | inactive: -9.99%
CCCCC(CC)COC(=O)c1ccc(C(=O)OCC(CC)CCCC)c(C(=O)OCC(CC)CCCC)c1 (centres undefined) | inconclusive: 89.4 µM [inhibitor, single point] | 
C1CCC2CCCCC2C1 (centres undefined) |  | inactive: 9.08%
O=C1OC(=O)C2C1C1(Cl)C(Cl)=C(Cl)C2(Cl)C1(Cl)Cl (centres undefined) |  | inactive: -16.1%
CCN(CC)C1CCCCC1 |  | inactive: 15%
FC(Cl)(Cl)Cl | inconclusive: 79.4 µM [inhibitor] | 
CC(C)(C#N)N=NC(C)(C)C#N | inactive | 
c1ccc(OP(Oc2ccccc2)Oc2ccccc2)cc1 | inconclusive: 70.3 µM [inhibitor, single point] and inconclusive: 89.4 µM [inhibitor, single point] | 
Brc1ccccc1 | inconclusive: 70.6 µM [inhibitor, partial curve] | 
CN/C(=N\[N+](=O)[O-])NCc1cnc(Cl)s1 | inconclusive: 89.4 µM [inhibitor, partial curve, poor fit] | 

Structure (SMILES) | Potency | activity change, negative = inhibition
Cc1cc(=O)[nH]o1 | inconclusive: 87 µM [inhibitor, partial curve, poor fit] | 
CCC1(c2ccccc2)C(=O)N=C(O)NC1=O (centres undefined) | inconclusive: 87 µM [inhibitor, single point] | 
Nc1nc(N)nc(N)n1 | inconclusive: 50.5 µM [inhibitor, partial curve, poor fit] | 
CC[C@H]1C[C@H]2[C@@H]3CCC4=CC(=O)CC[C@@H]4[C@H]3CC[C@]2(C)[C@H]1O | inconclusive: 38.9 µM [inhibitor] | 
ClCc1ccc(Cl)cc1Cl | inconclusive: 89.4 µM [inhibitor, single point] | 
CN=C=O |  | inactive: -13.4%
O=C1OC(c2ccc(O)c(S(=O)(=O)O)c2)(c2ccc(O)c(S(=O)(=O)O)c2)c2c(Br)c(Br)c(Br)c(Br)c21 |  | inactive: 18.5% [at 52.9 µM]
CCCCN=C=O | active: 35.2 µM | 
CCCCON=O | inconclusive: 32.5 µM [inhibitor, single point] | 
O=C(Cl)CCl | inconclusive: 89.9 µM [inhibitor, single point] | 
OCC(O)CO | inactive | 
c1coc(-c2nc3ccccc3[nH]2)c1 | active: 28.3 µM | 
CCOc1cc(C=O)ccc1O | inconclusive: 79.8 µM [inhibitor, single point] | 
CCCCCCCCC(=O)NCc1ccc(O)c(OC)c1 | inconclusive: 39.9 µM [inhibitor, partial curve, poor fit] | 
COc1ccc(OC)c(CC(C)N)c1 (centres undefined) |  | inactive: 12.9%
Clc1cc(Cl)c(Cl)c(Cl)c1 |  | inactive: -24.8%
[O]=[Cr][O][Cr]=[O] | inconclusive: 45.8 µM [inhibitor, partial curve] | 
CCOS(=O)(=O)OCC |  | inactive: 7.24%
CC(Oc1ccc(Oc2ncc(C(F)(F)F)cc2Cl)cc1)C(=O)O (centres undefined) | inconclusive: 89.4 µM [inhibitor, single point] | 

Source: PubChem BioAssay (Tox21)
